This is an account of results in patent EP2791141B1, “Tofacitinib mono-tartrate salt” (ratiopharm GmbH, priority 2011, dated 2013).

Broadly, the solubility is the concentration that dissolves in the medium under given conditions.

One series can be described thus: physchem. The following applies: thermodynamic from solid.
For series [1] the following is noted: stirred 1 h at room temperature, filtered, HPLC-UV 290 nm, quantified as Tofacitinib, 60 min.

SMILES strings stand for the structures. In brackets after ≈: the same amount, converted by molar mass.

Turning to `C[C@@H]1CCN(C(=O)CC#N)C[C@@H]1N(C)c1ncnc2[nH]ccc12` [TOF-malate, Tofacitinib mono-malate], the solubility at 1 h in “physchem” (0.1 n hcl, pH 1.2, simulated gastric fluid, solubility pH 1.2, 0.1 N HCl (pH 1.2), stirred 1 h at room temperature, filtered, HPLC-UV 290 nm, quantified as Tofacitinib) was 361 mg/mL (≈ 1160 mM); in the series “physchem” (20 mm sodium acetate, pH 4.5, aqueous buffer, solubility pH 4.5, 20 mM sodium acetate (pH 4.5), stirred 1 h at room temperature, filtered, HPLC-UV 290 nm, quantified as Tofacitinib), 364 mg/mL (≈ 1170 mM); in the series “physchem” (50 mm potassium dihydrogen phosphate, pH 6.8, aqueous buffer, solubility pH 6.8, 50 mM potassium dihydrogen phosphate (pH 6.8), stirred 1 h at room temperature, filtered, HPLC-UV 290 nm, quantified as Tofacitinib) it was 377 mg/mL (≈ 1210 mM).

`C[C@@H]1CCN(C(=O)CC#N)C[C@@H]1N(C)c1ncnc2[nH]ccc12` [TOF-tartrate, Tofacitinib mono-tartrate] returned a solubility at 1 h in “physchem” (50 mm potassium dihydrogen phosphate, pH 6.8, aqueous buffer) of 353 mg/mL (≈ 1130 mM).

For the compound `C[C@@H]1CCN(C(=O)CC#N)C[C@@H]1N(C)c1ncnc2[nH]ccc12` [TOT-oxalate, Tofacitinib mono-oxalate], in series [1] (20 mM sodium acetate (pH 4.5)), the “solubility pH 4.5” value is 329 mg/ml. Besides, the “solubility pH 6.8” value in series [1] (50 mM potassium dihydrogen phosphate (pH 6.8)) was found to be 350 mg/ml. In series [1] (0.1 N HCl (pH 1.2)), the “solubility pH 1.2” value was determined as 375 mg/ml.
